# Measurements published in US10441588B2, “Methods and compositions for treating bacterial infection” (Curators of the University of Missouri, priority 2012, dated 2019).
# Values joined by “and” are separate entries in the source; they are usually repeats but may differ in a detail not shown here. Equal entries are not always repeated. At least one read-out could not be matched to a standard name with certainty.
# Experiments:
# [1] = tested on: S. aureus biofilm; test: S. aureus biofilm inhibition, optical density, test/control; type: cell-based, Staphylococcus aureus; conditions: growth of biofilm test/control by optical density
# [2] = tested on: S. aureus; test: S. aureus growth inhibition, optical density, test/control; type: cell-based, Staphylococcus aureus; conditions: growth of bacteria test/control by optical density
# [3] = tested on: S. epidermis biofilm; test: S. epidermis biofilm inhibition, optical density, test/control; conditions: growth of biofilm test/control by optical density
# [4] = tested on: S. epidermis; test: S. epidermis growth inhibition, optical density, test/control; type: cell-based, Staphylococcus epidermidis; conditions: growth of bacteria test/control by optical density
compound,measurement,setting,value
C=CCn1c(SCC(F)(F)F)nc2c(c1=O)C(C)(C)Cc1ccc(OC)cc1-2 [CCG-206352],S. aureus Biofilm Inhibition 100 μM vs. (−) Control,[1],0.535 and 0.623
same,Growth Inhibition 100 μM vs. (−) Control,[2],1.082 and 1.085
"C=CCn1c(SCCOC)nc2c(c1=O)C1(CCN(C(=O)OC(C)(C)C)CC1)Cc1cc(OC)ccc1-2 [CCG-206660, tert-butyl 3-allyl-8-methoxy-2-((2-methoxyethyl)thio)-4-oxo-4,6-dihydro-3H-spiro[benzo[h]quinazoline-5,4′-piperidine]-1′-carboxylate]",S. aureus Biofilm Inhibition 50 μM vs. (−) Control,[1],0.604 and 0.746
same,S. epidermis Biofilm inhibition 5 μM vs. (−) Control,[3],0.778
same,S. epidermis Biofilm inhibition 50 μM vs. (−) Control,[3],0.727
"C=CCn1c(SCC)nc2c(c1=O)C(C)(C)Cc1cc(OCCN(CC)CC)ccc1-2 [CCG-205396, 3-Allyl-8-(2-(diethylamino)ethoxy)-2-(ethylthio)-5,5-dimethyl-5,6-dihydrobenzo[h]-quinazolin-4(3H)-one]",S. aureus Biofilm Inhibition 100 μM vs. (−) Control,[1],0.073 and 0.07
C=CCn1c(NCC)nc2c(c1=O)C1(CCCCC1)Cc1ccccc1-2 [CCG-203043],S. epidermis Biofilm inhibition 100 μM vs. (−) Control,[3],0.402 and 0.437
same,Growth Inhibition 100 μM vs. (−) Control,[4],1.03 and 1.183 and 0.890
C=CCn1c(SCC)nc2c(c1=O)C(C)(C)Cc1cc(OC(C)C)ccc1-2 [CCG-205480],S. aureus Biofilm Inhibition 100 μM vs. (−) Control,[1],0.441 and 0.622 and 0.65
same,Growth Inhibition 100 μM vs. (−) Control,[2],1.029 and 1.16
C=CCn1c(SCC)nc2c(c1=O)C(C)(C)Cc1cc(OC)ccc1-2 [CCG-203592],S. aureus Biofilm Inhibition 100 μM vs. (−) Control,[1],0.35 and 0.357
same,Growth Inhibition 100 μM vs. (−) Control,[2],0.91 and 1.014
"C=CCn1c(SCCOC)nc(-c2ccccc2)c(C)c1=O [CCG-205381, 3-allyl-2-((2-methoxyethyl)thio)-5-methyl-6-phenylpyrimidin-4(3H)-one]",Growth Inhibition 100 μM vs. (−) Control,[4],0.843 and 0.553
"C=CCn1c(SCCOC)nc2c(c1=O)C1(CCN(C(=O)CCCC)CC1)Cc1ccccc1-2 [CCG-206227, 3-Allyl-2-((2-methoxyethyl)thio)-1′-pentanoyl-3H-spiro[benzo[h]quinazoline-5,4′-piperidin]-4(6H)-one]",S. aureus Biofilm Inhibition 100 μM vs. (−) Control,[1],0.38 and 0.469
same,S. epidermis Biofilm inhibition 100 μM vs. (−) Control,[3],0.30 and 0.498 and 0.599
same,Growth Inhibition 100 μM vs. (−) Control,[2],0.785 and 1.08 and 1.177
same,Growth Inhibition 100 μM vs. (−) Control,[4],1.432 and 1.314
"C=CCn1c(SCCOC)nc2c(c1=O)C1(CCN(C=O)CC1)Cc1ccccc1-2 [CCG-206234, 3-Allyl-2-((2-methoxyethyl)thio)-4-oxo-4,6-dihydro-3H-spiro[benzo[h]quinazoline-5,4′-piperidine]-1′-carbaldehyde]",S. aureus Biofilm Inhibition 100 μM vs. (−) Control,[1],0.653 and 0.773
same,Growth Inhibition 100 μM vs. (−) Control,[2],1.038 and 0.993
C=CCn1c(SCCOC)nc2c(c1=O)C(C)(C)Cc1cc(C(=O)OC)ccc1-2 [CCG-205435],S. aureus Biofilm Inhibition 100 μM vs. (−) Control,[1],0.38 and 0.651 and 0.751
same,Growth Inhibition 100 μM vs. (−) Control,[2],1.148 and 1.158
"COCCSc1nc(OCCCO)c2c(n1)-c1ccccc1CC2(C)C [CCG-205384, 3-((2-((2-Methoxyethyl)thio)-5,5-dimethyl-5,6-dihydrobenzo[h]quinazolin-4-yl)oxy)propan-1-ol]",Growth Inhibition 100 μM vs. (−) Control,[4],0.92 and 1.014
C=CCn1c(NCC)nc2c(c1=O)C(C)(C)Cc1ccccc1-2 [CCG-203804],Growth Inhibition 100 μM vs. (−) Control,[4],0.90 and 1.006
"C=CCn1c(SCCOC)nc2c(c1=O)C1(CCN(C(=O)c3ccccc3)CC1)Cc1ccccc1-2 [CCG-206231, 3-Allyl-1′-benzoyl-2-((2-methoxyethyl)thio)-3H-spiro[benzo[h]quinazoline-5,4′-piperidin]-4(6H)-one]",S. aureus Biofilm Inhibition 100 μM vs. (−) Control,[1],0.529 and 0.651
same,Growth Inhibition 100 μM vs. (−) Control,[2],1.097 and 1.101
"C=CCn1c(SCCOC)nc2c(c1=O)C(C)(C)Cc1cc(C(=O)NCCO)ccc1-2 [CCG-206239, 3-allyl-N-(2-hydroxyethyl)-2-((2-methoxyethyl)thio)-5,5-dimethyl-4-oxo-1,2,3,4,5,6-hexahydrobenzo[h]quinazoline-8-carboxamide]",S. aureus Biofilm Inhibition 100 μM vs. (−) Control,[1],0.485
same,Growth Inhibition 100 μM vs. (−) Control,[2],0.557 and 0.974
same,Growth Inhibition 100 μM vs. (−) Control,[4],1.070
"COCCSc1nc2c(c(=O)n1CCCO)C(C)(C)Cc1ccccc1-2 [CCG-205390, 3-(3-Hydroxypropyl)-2-((2-methoxyethyl)thio)-5,5-dimethyl-5,6-dihydrobenzo[h]quinazolin-4(3H)-one]",Growth Inhibition 100 μM vs. (−) Control,[4],1.350 and 1.09 and 1.069
"C=CCn1c(SCCOC)nc2c(c1=O)C1(CCN(C(C)=O)CC1)Cc1ccccc1-2 [CCG-206230, 1′-Acetyl-3-allyl-2-((2-methoxyethyl)thio)-3H-spiro[benzo[h]quinazoline-5,4′-piperidin]-4(6H)-one]",S. aureus Biofilm Inhibition 100 μM vs. (−) Control,[1],0.430 and 0.68 and 0.745
same,Growth Inhibition 100 μM vs. (−) Control,[2],1.04 and 1.081
C=CCn1c(SCC)nc2c(c1=O)C(C)(C)Cc1cc(OCCN3CCOCC3)ccc1-2 [CCG-205427],Growth Inhibition 100 μM vs. (−) Control,[2],0.97 and 0.997
"C=CCn1c(SCC)nc2c(c1=O)C1(CCN(C(=O)OC(C)(C)C)CC1)Cc1cc(OC)ccc1-2 [CCG-206663, tert-butyl 3-allyl-2-(ethylthio)-8-methoxy-4-oxo-4,6-dihydro-3H-spiro[benzo[h]quinazoline-5,4′-piperidine]-1′-carboxylate]",S. aureus Biofilm Inhibition 5 μM vs. (−) Control,[1]; 5 μM,0.608
same,S. aureus Biofilm Inhibition 50 μM vs. (−) Control,[1],0.476 and 0.588 and 0.589 and 0.708
same,S. epidermis Biofilm inhibition 5 μM vs. (−) Control,[3],0.672
same,S. epidermis Biofilm inhibition 50 μM vs. (−) Control,[3],0.775 and 0.781
C=CCn1c(SCC)nc2c(c1=O)C(C)(C)Cc1cc(OCC(=O)O)ccc1-2 [CCG-205434],S. aureus Biofilm Inhibition 100 μM vs. (−) Control,[1],0.355
same,Growth Inhibition 100 μM vs. (−) Control,[2],0.622 and 0.960
"C=CCn1c(SCCOC)nc2c(c1=O)C1(CCNCC1)Cc1ccccc1-2 [CCG-205447, 3-Allyl-2-((2-methoxyethyl)thio)-3H-spiro[benzo[h]quinazoline-5,4′-piperidin]-4(6H)-one]",S. aureus Biofilm Inhibition 100 μM vs. (−) Control,[1],0.395 and 0.50 and 0.665
same,Growth Inhibition 100 μM vs. (−) Control,[2],1.06 and 0.980
same,Growth Inhibition 100 μM vs. (−) Control,[4],0.935 and 1.006
C=CCOc1nc(SCC)nc2c1C(C)(C)Cc1ccc(OC)cc1-2 [CCG-206358],S. aureus Biofilm Inhibition 100 μM vs. (−) Control,[1],0.708 and 0.728
same,Growth Inhibition 100 μM vs. (−) Control,[2],0.95 and 1.173 and 1.167
C=CCn1c(SCC)nc2c(c1=O)C(C)(C)Cc1ccc(OC)cc1-2 [CCG-203625],Growth Inhibition 100 μM vs. (−) Control,[2],0.949 and 0.708 and 1.24 and 0.985
C=CCn1c(SCC)nc2c(c1=O)C(C)(C)Cc1cc(OCC#N)ccc1-2 [CCG-206178],S. aureus Biofilm Inhibition 100 μM vs. (−) Control,[1],0.43 and 0.583 and 0.794
same,Growth Inhibition 100 μM vs. (−) Control,[2],0.977 and 1.049
CCSc1nc2c(c(=O)n1C)C(C)(C)Cc1ccc(OC)cc1-2 [CCG-206353],S. aureus Biofilm Inhibition 100 μM vs. (−) Control,[1],0.368 and 0.40
same,S. epidermis Biofilm inhibition 100 μM vs. (−) Control,[3],0.39 and 0.428
same,Growth Inhibition 100 μM vs. (−) Control,[2],0.985 and 1.05
same,Growth Inhibition 100 μM vs. (−) Control,[4],1.079 and 0.83 and 0.964
